Measured values reported in PubChem BioAssay AID902 (National Center for Advancing Translational Sciences (NCATS), 2007).
About 1,900 (1.5%) of roughly 130,000 compounds were called active. Inconclusive means that the source gave no clear call. Such entries were picked first, then a sample of the others. Calls follow the shape of the dose curve; as a rule, active = well fitted cell-killing curve with a large enough effect; inconclusive = small, poorly fitted or top-dose-only effect; inactive = no such curve, though single readings can be large or run the other way. A potency beside an inconclusive call is a rough fit, not a confirmed value.

Assay: qHTS Screen for Compounds that Selectively Target Cancer Cells with p53 Mutations: Cytotoxicity of p53ts Cells at the Nonpermissive Temperature; also: nearly all actives have a fitted effect of over 55% in size
Details: H1299-p53A138V viability at 39C, ATP luminescence, 24 h; activity change, negative = cell killing: at 46.1 µM (top of the series)
% is scaled to controls: 0 for no effect and ±100 for the full control effect; potency is read from the fitted curve at half-maximal effect; tags tell the direction and shape of the fitted curve.

Compound	Potency	activity change, negative = cell killing
COc1ccc(NC(=O)CSc2nccn2-c2ccccc2)cc1	inactive	
Cc1ccsc1CN(Cc1ccco1)C(=O)c1ccc(Cl)cc1	inconclusive: 31.6 µM [cytotoxic, single point]	
O=C(Nc1nnc(Cc2ccccc2)s1)c1cccs1	inactive	
O=C1CN(CC(=O)N2CCCCC2)c2ccccc2O1	inactive	
O=C(Nc1nc2c(F)cc(F)cc2s1)c1ccc2c(c1)OCCO2	inconclusive: 5.01 µM [cytotoxic, full curve]	
COc1cccc(C(=O)Nc2cccc(NC(C)=O)c2)c1	inactive	
COc1ccc(-c2nnc(SCC(=O)N3CCc4ccccc4C3)o2)cc1	inactive	
CC(C)(C)C(=O)Nc1nnc2n1CCS2	inconclusive: 15.8 µM [cytotoxic, partial curve]	
CN(C)C=Nc1ccc2nn(-c3ccccc3)nc2c1	inconclusive: 12.6 µM [cytotoxic, single point]	
COc1ccc(-c2ccc(-c3nnn(CC(=O)N4CCOCC4)n3)cc2)cc1	inconclusive: 0.794 µM [cytotoxic, full curve]	
CCn1c(C)cc(=S)c2ccccc21	inactive	
COc1ccc(C2SCCN2S(=O)(=O)c2ccc(F)cc2)cc1OC (stereo unspecified)	inconclusive: 12.6 µM [cytotoxic, partial curve]	
c1csc(-c2nnc(-c3ccc(N4CCOCC4)cc3)o2)c1	active: 12.6 µM	
Cc1ccccc1CN1C(=O)c2ccccc2S(=O)c2ccc(C(=O)NC3CCC(C)CC3)cc21 (stereo unspecified)	inactive	
COc1ccc(CNc2nc3c(-c4cccc(C)c4)nnn3c3ccccc23)cc1	inconclusive: 25.1 µM [cytotoxic, single point]	
Cc1nn(CC(=O)N2CCC(C)CC2)c(=O)c2cc3sccc3n12	inactive	
Cc1ccc(CN2CCC(CNC(=O)Nc3ccc(Cl)cc3)C2)cc1 (stereo unspecified)	inconclusive: 12.6 µM [cytotoxic, single point]	
Cc1c(C(=O)NCC(c2ccc(Cl)cc2)N2CCOCC2)oc2ccccc12 (stereo unspecified)	inactive	
Cc1cc2nc(-c3ccc(SCC(=O)N4CCN(C(=O)c5ccco5)CC4)nc3)[nH]c2cc1C	active: 5.01 µM	
CC1(CC(=O)O)O[C@H]2CCCCC[C@H]2O1 (stereo partly specified) (tested in a mixture with another compound)		inactive: 8.71% [at 9.22 µM]
Cc1c(C(=O)OCCOc2ccccc2)[nH]c2c1C(=O)CC(c1ccccc1)C2 (stereo unspecified)	inconclusive: 7.94 µM [cytotoxic, partial curve]	
CCOc1ccccc1CNC(=O)C1CCN(C(=O)N2CC(CC)Oc3ccc(C)cc32)CC1 (stereo unspecified)	inactive	
CC(C)Oc1ccc(C(=O)NCc2ccco2)cc1	inconclusive: 20 µM [cytotoxic, single point]	
COc1ccc(NC(=O)Cn2c(=O)n(CCC(=O)NCc3ccccc3OC)c(=O)c3ccccc32)cc1Cl	inconclusive: 7.94 µM [cytotoxic, partial curve]	

Compound	Potency	activity change, negative = cell killing
C=CCn1c(C)cc(C(=O)COc2ncnc3sccc23)c1C	active: 7.94 µM	
Cc1cccc(NC(=O)c2ccc3snnc3c2)c1		inconclusive: -35.2% [cytotoxic]
Cc1ccc(C2CCN(C(=O)Nc3ccccc3)C2)cc1 (stereo unspecified)	inconclusive: 12.6 µM [cytotoxic, single point]	
Cc1ccc(N(CC(=O)N2CCN(c3ccccc3F)CC2)S(=O)(=O)c2c(C)noc2C)cc1	inconclusive: 28.2 µM [cytotoxic, single point]	
CCn1c(C(=O)NCc2ccccc2C)cc2oc3ccccc3c21	inconclusive: 11.2 µM [cytotoxic, single point]	
Cc1nc(-c2cccc(NC(=O)Nc3ccc([N+](=O)[O-])cc3)c2)no1	inconclusive: 12.6 µM [cytotoxic, partial curve]	
c1coc(-c2nc3ccccc3nc2-c2ccco2)c1	inactive	
COC(=O)c1ccc2c(=O)n(CCCCCC(=O)N3CCN(c4ccccc4)CC3)c(=O)[nH]c2c1	inconclusive: 31.6 µM [cytotoxic, single point]	
CCCN1C(=O)c2[nH]nc(-c3ccccc3O)c2C1c1ccc(OCc2ccccc2)c(OC)c1 (stereo unspecified)	inconclusive: 12.6 µM [cytotoxic, single point]	
COc1c(-c2coc3cc4c(cc3c2=O)CC(O)C(C)(C)O4)ccc2c1C=CC(C)(C)O2 (stereo unspecified)	active: 25.1 µM	
CC(C)CC(=O)Nc1cccc(-c2cn3ccsc3n2)c1	inconclusive: 12.6 µM [cytotoxic, single point]	
O=C(Cn1c(=O)nc(-c2ccccc2)c2ccccc21)NCc1ccc(Cl)cc1		inconclusive: -34.4% [cytotoxic]
CCCCNC(=O)C1CCC(Cn2c(=O)c3sccc3n(CC(=O)N3CCCC3)c2=O)CC1 (stereo unspecified)	inconclusive: 0.005 µM [cytotoxic, full curve, poor fit]	
O=C(Nc1cc(C(F)(F)F)ccc1Cl)c1nc2ccccc2nc1N1CCCCC1		inconclusive: -30.3% [cytotoxic]
Nc1ccc(N2CCN(c3ncc(C(F)(F)F)cc3Cl)CC2)c(C(F)(F)F)c1	inconclusive: 31.6 µM [cytotoxic, single point]	
O=C(NCC(c1ccc2c(c1)OCO2)N1CCOCC1)c1cccc(Cl)c1 (stereo unspecified)		inconclusive: -31.7% [cytotoxic]
Cc1ccc(Cn2c(CNS(=O)(=O)c3ccc(F)c(Cl)c3)nc3cccnc32)cc1	inconclusive: 0.316 µM [cytotoxic, full curve]	
COc1ccccc1C(=O)Nc1ccc(N2CCN(S(C)(=O)=O)CC2)cc1	inconclusive: 10 µM [cytotoxic, single point]	
Cc1ccccc1CCNC(=O)c1ccc2c(c1)nc1n2CCC(C)C1 (stereo unspecified)	active: 12.6 µM	
COc1ccc(Nc2cc(C(=O)NCCCN3CCN(c4ccc(OC)cc4)CC3)c3ccccc3n2)cc1	active: 12.6 µM	
c1ccc(-c2nc(NCCCN3CCOCC3)c3ccccc3n2)cc1	inconclusive: 31.6 µM [cytotoxic, single point]	
Cc1ccc2nc(SCC(=O)Nc3cc(C(C)(C)C)nn3-c3ccccc3)[nH]c2c1	inconclusive: 35.5 µM [cytotoxic, single point]	
CN(C)c1ccc(NC(=O)CSc2nc3ccccc3c(=O)n2C2CCCCC2)cc1	inactive	
COCCn1c(C)cc(C(=O)CSc2nncn2-c2ccccc2)c1C	inconclusive: 20 µM [cytotoxic, partial curve]	

Compound	Potency	activity change, negative = cell killing
Oc1c(Cl)cc(Cl)c2c1NCCC2	inconclusive: 12.6 µM [cytotoxic, partial curve]	
O=C(Nc1ccc(S(=O)(=O)N2CCCCC2c2cccnc2)cc1)c1ccc(F)cc1 (stereo unspecified)	inconclusive: 31.6 µM [cytotoxic, single point]	
Cc1ccc(-c2nc3nc(C)cc(N4CCN(c5cccc(C)c5)C(C)C4)n3n2)cc1 (stereo unspecified)	inconclusive: 25.1 µM [cytotoxic, single point]	
COc1cc2oc(=O)c(CC(=O)NCCc3ccccc3F)c(C)c2cc1OC	inactive	
COc1ccc(OC)c2[nH]c(=O)c(CCNC(C)=O)cc12	inconclusive: 31.6 µM [cytotoxic, single point]	
COc1ccc(C)cc1NC(=O)C(OC(=O)CNC(=O)c1cccc(F)c1)c1ccccc1 (stereo unspecified)	inconclusive: 20 µM [cytotoxic, single point]	
CCC/C=C(\CCC)C(NC(=O)c1cccs1)c1ccc(C(F)(F)F)cc1 (stereo unspecified)	inconclusive: 25.1 µM [cytotoxic, single point]	
Oc1c(C(c2ccccc2Cl)N2CCOCC2)sc2nc(-c3ccco3)nn12 (stereo unspecified)	inactive	
CCCCOC(=O)c1ccc(NC(=O)Cc2coc3c(C)c(C)ccc23)cc1	inconclusive: 31.6 µM [cytotoxic, single point]	
CCNC(=O)C1CCCN(c2nnc(C)c3c(C)n(-c4ccc(C)cc4)nc23)C1 (stereo unspecified)	inconclusive: 10 µM [cytotoxic, partial curve]	
CCOC(=O)N1CCN(C(=O)Cn2ncc3ccccc32)CC1	inactive	
O=C(Nc1ccc(SC(F)F)cc1)C1=COCCO1	inconclusive: 10 µM [cytotoxic, partial curve]	
Cc1ccc(C)c(Cn2c3ccccc3c3cnn(CC(=O)NCC(C)c4ccccc4)c(=O)c32)c1 (stereo unspecified)	inconclusive: 2.51 µM [cytotoxic, full curve]	
CCOC(=O)CSc1ccc2nnc(-c3ccncc3)n2n1	inconclusive: 31.6 µM [cytotoxic, single point]	
Cc1ccc(NC(=O)CN2C(=O)CC(c3ccc(F)cc3)=Nc3ccccc32)cc1F	inconclusive: 12.6 µM [cytotoxic, single point]	
COc1ccc(C2c3c(oc4ccc(Cl)cc4c3=O)C(=O)N2CCCN(C)C)cc1OC (stereo unspecified)	inactive	
CN(C)c1ccc(C(=O)Nc2nc3c(s2)CCCC3)cc1	inconclusive: 10 µM [cytotoxic, partial curve]	
O=C(CCSCc1cnn(-c2ccccc2)c1-n1cccc1)NCc1ccc(Cl)cc1	inconclusive: 31.6 µM [cytotoxic, single point]	
CCCOc1ccc(NC(=O)CC2C(=O)N(c3cccc(C)c3)C(=O)N2CCc2ccncc2)cc1 (stereo unspecified)	inactive	
Nc1nc(CSc2nnnn2-c2ccccc2)nc(N2CCCc3ccccc32)n1	inconclusive: 35.5 µM [cytotoxic, single point]	
OCCNCCCOc1cccc(Cl)c1Cl	active: 12.6 µM	
c1ncc(-c2ccoc2)c(NC2CC2)n1	inactive	
Cc1ccc(-n2ncc3c(NCCCn4ccnc4)ncnc32)cc1	inconclusive: 20 µM [cytotoxic, partial curve]	
